The structures appear in SMILES notation. Values joined by “and” are separate entries in the source; they are usually repeats but may differ in a detail not shown here. Equal values may be shown once.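 Values below derive from 48-hour exposures of cells grown in 96-well plates, with endpoints linearly interpolated between the two concentrations bracketing the appropriate inhibition level. Abbreviation: GI50, concentration required for 50% inhibition of growth. Definition used: TGI = concentration required for complete inhibition of growth.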 Bridge positions count the residues as written; N and C are the ends. Square brackets hold non-standard residues; d marks the D form. Peptide text beside a SMILES is read from it. * marks the point of attachment. Fmoc = O=C(OCC1c2ccccc2-c2ccccc21)*; Aib = CC(C)(N)C(=O)O; OtBu = CC(C)(C)O*; βAla = NCCC(=O)O

This test has as its system NCI-H322M lung. Put plainly: NCI-60 cell line screen, 48 h.
Turning to `O=C(C(=O)c1cc2ccccc2[nH]1)c1cc2ccccc2[nH]1`, the TGI was > 347 µM. For the compound `CCOC(=O)c1nc2cc(C(F)(F)F)ccc2nc1Oc1ccc(C#N)cc1`, the TGI was > 100 µM.

Take `COC(=O)c1cc2c(=O)n(C)c3ccccc3n2c1C(=O)OC`: the TGI is > 100 µM. As for `COc1c/c(=C2\C=c3ccccc3=N2)[nH]/c1=C\c1[nH]c(C)cc1C`, the GI50 is 0.151 µM and the TGI was 22.6 µM. For the compound `CC(C)(C)[Si](OC1CCOC1=O)(c1ccccc1)c1ccccc1` (centres undefined), the TGI was > 100 µM. Regarding `CCc1ccc(Oc2c(-c3ccc(OCc4ccc(Cl)cc4)cc3O)n[nH]c2C(F)(F)F)cc1`, the GI50 was 2.05 µM and the TGI came to 5.02 µM. For `CCCCCCCCCCCCCCCC1=NCC[N+]1(CCO)CCO` the same measures were 5.58 µM and 18.5 µM. With `COc1ccc(Nc2nc3cc(N)cc(N)c3nc2-c2ccccc2)cc1`, the GI50 was 23.4 µM and the TGI stood at 83.6 µM.

`CCOC1OC(COC(=O)C(C)(C)C)C(O)CC1n1cc(C)c(=O)[nH]c1=O` (centres undefined): the TGI is > 100 µM.

As for `C=CCC1(CN(C)C)CC/C(=C\c2ccc(OC)cc2)C1=O` (centres undefined), the TGI is > 100 µM. On the same count and under the same terms, the value for `CC1=NN(c2cccc(Cl)c2)C2(SCC(=O)N2c2nc3ccccc3s2)C1=CC=Cc1ccccc1` (centres undefined) was > 100 µM. Turning to `Nc1nc(/C=C\c2ccc([N+](=O)[O-])s2)nc(N2CCN(c3ccccc3)CC2)n1`, the GI50 was 19.8 µM and the TGI was 49.8 µM. In the case of `CCc1nc(N)nc(N)c1-c1ccc(Cl)c([N+](=O)[O-])c1`, the TGI was > 100 µM. On to `Cc1c(C)n(CCCN2CCN(C)CC2)c2ccc(Oc3cccc(C(=O)N4CCN(CCc5ccc(F)cc5)CC4)c3)cc12`, for which the GI50 was 1.61 µM and the TGI was found to be 2.99 µM. In the case of `CCc1cccc(C(C)C)c1NC(=O)C(=O)C1C(=O)Nc2ccccc2S1=O` (centres undefined), the TGI was > 100 µM.

In the case of `C=CCOC(=O)CC[C@H](NC(=O)[C@@H](CCC(F)(F)F)Cc1ccc(O)cc1)C(=O)OCC=C`, the TGI was > 100 µM. On the same count and under the same terms, the same measure for `COC(=O)[C@@H]1c2cc3c(c(O)c2[C@@H](OC2OC(C)C(OC)C(C)(OC)C2OC)C[C@]1(C)O)C(=O)c1c(O)cc2c(c1C3=O)O[C@H]1O[C@]2(C)[C@H](O)[C@@H](N(C)C)[C@@H]1O` (some centres undefined): 0.449 µM and 0.355 µM. The same measure, in the same setting: the value for `N#CC(c1ccccc1)N(CCCCCCN(C(=O)c1ccccc1)C(C#N)c1ccccc1)C(=O)c1ccccc1` (centres undefined) was > 100 µM.

`CNC(=O)c1ccc(N2C(=S)N(c3cnc(C#N)c(C(F)(F)F)c3)C(=O)C23CCC3)cc1F`: the GI50 is > 100 µM and the TGI is > 100 µM.

On to `CC(C)C(NC(=O)OCC1c2ccccc2-c2ccccc21)C(=O)NC(CCC(=O)OC(C)(C)C)C(=O)OC(C)(C)C` (centres undefined) (Fmoc-Val-Glu(OtBu)-OtBu; configuration not given here), for which the TGI is > 100 µM. Same read-out and setting: the value for `C=C(C)C12CC3CC(/C(=N/O)C(C1)/C3=N\O)[C@@]2(C)O` (some centres undefined) was > 100 µM; that for `COc1ccc(Cc2c3cc(O)c(=O)cc-3ccn2C)cc1` was > 100 µM.

Turning to `Cc1cc2nc(NCCN)n(Cc3ccc(F)c(Cl)c3)c2cc1C`, the GI50 was 10.8 µM and the TGI was 23.5 µM. Regarding `N#C/C(=C\c1cc(O)cc(O)c1)C(N)=O`, the TGI is > 100 µM. On to `Cc1ccc(CC2(C(=O)O)Cc3ccc(C)cc3C2)cc1` (centres undefined), for which the TGI was > 100 µM. The same measure, in the same setting: the value for `CCN(CC)CCCNc1nccc2c(C)c3c(cc12)c1cnccc1n3C` was 0.465 µM; that for `O=c1ccc2ccc(OP(=O)(O)O)cc2o1` was > 100 µM. Same read-out and setting: the same measure for `O=C1C=C(Nc2ccc(Cl)cc2Cl)c2ccccc2C1=O`: > 100 µM; for `CCOC(=O)Cc1csc(NC(NC(=O)OCC)(C(=O)OCC)C(F)(F)F)n1` (centres undefined): > 100 µM. Same read-out and setting: the value for `CCC[C@H]1O[C@@H]2CC(=O)O[C@@H]2C2=C1C(=O)C=CC2=O` was > 100 µM. As to `O=C1NC(=C(Cl)Cl)/C(=N/S(=O)(=O)N2CCCCC2)N1`, the GI50 is 2.19 µM and the TGI worked out at 5.66 µM. Consider `COc1ccc(C(=O)C(CN(C)C)CN(C)C)cc1`, for which the GI50 is 16.4 µM and the TGI came out at 32 µM. With `O=C(NCCCCN1CCOCC1)c1cc2ccccc2o1`, the GI50 is > 100 µM and the TGI was > 100 µM.

As to `C=CSCCC(N)C(=O)O` (centres undefined), the TGI is > 100 µM. As to `CC[C@H](C)[C@H](NC(=O)[C@H]1CCCCN1C)C(=O)N(C)[C@H](C[C@@H](OC(C)=O)c1cccc(C(=O)N[C@@H](Cc2ccccc2)C[C@H](C)C(=O)OC)n1)C(C)C`, the GI50 is 0.00463 µM and 0.0109 µM; the TGI was > 25 µM.

`CC1(C)NC(=O)C(NC(=O)C(N)CC(=O)O)CCCCNC(=O)CCNC1=O` (centres undefined) (H-DK[Aib][βAla]; lactam 2-C; configuration not given here): the TGI is > 100 µM. Consider `C[C@H](C1CC(C)(O)C(C)(O)C(O)O1)[C@H]1CC[C@H]2[C@@H]3[C@@H]4O[C@@H]4[C@@]4(O)CC=CC(=O)[C@]4(C)[C@H]3CC[C@]12C` (some centres undefined), for which the TGI was > 50 µM. On the same count and under the same terms, the value for `C/C=C(\C)c1cc(=O)c2c(C)cc3c(c2o1)C(=O)c1c(O)c(C2CC(C)(N(C)C)C(OC(C)=O)C(C)O2)cc(C2CC(N(C)C)C(O)C(C)O2)c1C3=O` (centres undefined) was 29.3 µM. Regarding `O=C1Nc2c(ccc(Cl)c2Cl)/C1=C/c1cc(Br)c(O)c(Br)c1`, the GI50 is 12.8 µM and the TGI is > 91.9 µM.

`CC(=O)Nc1ccc2c(c1)/C(=C\c1ccc([N+](C)(C)C)cc1)c1ccccc1-2`: the TGI stood at 78.7 µM. With `COc1ccc(CNc2cnc3cc(N)ccc3n2)cc1`, the TGI was > 100 µM.

For `Cc1cc2c(C(=O)NC[C@H](C)c3ccccc3)c(O)c(O)cc2c(O)c1-c1c(C)cc2c(C(=O)NC[C@H](C)c3ccccc3)c(O)c(O)cc2c1O`, the GI50 is 0.64 µM and the TGI worked out at 16.4 µM. As to `O=C1C2C(C(=O)N1c1ccccc1)C1(c3ccccc3)CCC2(C(=O)c2ccccc2)O1` (centres undefined), the TGI is > 10 µM.

In the case of `CC1=C(C#N)C(=C(C#N)C#N)OC1(C)Cc1ccccc1` (centres undefined), the TGI is > 100 µM. For `Fc1ccc(-c2c(-c3ccncc3)nc3n2CCS3)cc1`, the GI50 was > 25 µM and the TGI is > 25 µM. Consider `CCOC(=O)c1cc(C2CCN(c3ccccc3)C2=O)c(/C(O)=C/C(C)=O)[nH]1` (centres undefined), for which the TGI was > 100 µM. Same read-out and setting: the same measure for `NC1N=C(c2ccc(Cl)cc2)C2=C(N1)c1ccccc1CC2` (centres undefined): > 100 µM; for `NC(=O)NNC(=O)CCn1[nH]c(=O)c(Cl)c(Cl)c1=O`: > 100 µM. On to `CCOc1cc(C2CC(c3ccc(NS(=O)(=O)c4cc([N+](=O)[O-])ccc4C)cc3)=NN2S(=O)(=O)c2cc([N+](=O)[O-])ccc2C)ccc1O` (centres undefined), for which the TGI is > 100 µM.

For `COc1cc(C2C(Cl)C(=O)N2NC(=O)Cc2ccccc2)cc(Br)c1O` (centres undefined), the TGI was > 100 µM. Regarding `Oc1c(Cl)cc(Cl)c(Cl)c1CNCCNCc1c(O)c(Cl)cc(Cl)c1Cl`, the GI50 was 0.779 µM and the TGI amounted to 6.37 µM. Take `O=C(Nc1ccc(C(F)(F)F)cc1)NC(F)(F)F`: the TGI was > 100 µM.

For the compound `CN=C1Nc2ccccc2C(=O)N2CSCC12` (centres undefined), the TGI was > 100 µM.

`CCn1cc2c(=O)n3ncn(-c4ccc(Br)cc4)c3nc2n1`: the TGI is > 100 µM. Same read-out and setting: the same measure for `COc1ccc(C2SC(N)=Nc3c2c(C)nn3C(=O)c2ccccc2O)cc1OC` (centres undefined): > 10 µM.

For `CCOCCOCCOCc1nc(C#N)c(N)o1`, the TGI was > 100 µM. Regarding `COC1CCC(OS(C)(=O)=O)C(CO)O1` (centres undefined), the TGI is > 100 µM. On the same count and under the same terms, the value for `CC(C)CC(NC(=O)C(C)(CI)Cc1ccccc1)C(=O)Nc1ccccc1` (centres undefined) was > 100 µM.

(Values after PubChem BioAssay (NCI).)
